The source of these data is the CheMixHub ionic liquid set.

± gives the uncertainty stated by the source. Further values from the same series stand in other lists.

This data set in a line: xn = mol fraction of the nth substance listed. The note with it: 328.15 K, 100.3 kPa.

Take `CCCCC[n+]1ccn(C)c1.C[C@H](N)C(=O)[O-]` + O: the viscosity – broadly, the resistance of a fluid to flow – by setting is: (x1 = 0.00302) 0.58 ± 0.015 mPa·s; (x1 = 0.005081) 0.625 ± 0.015 mPa·s; (x1 = 0.006922) 0.672 ± 0.015 mPa·s; (x1 = 0.009062) 0.716 ± 0.015 mPa·s; (x1 = 0.01107) 0.763 ± 0.015 mPa·s; (x1 = 0.01292) 0.807 ± 0.015 mPa·s. The viscosity by setting is: (x1 = 0.0148) 0.85 ± 0.015 mPa·s; (x1 = 0.01797) 0.911 ± 0.015 mPa·s.

Regarding `CCC[n+]1ccn(C)c1.C[C@H](N)C(=O)[O-]` + O, the viscosity reads like this: (x1 = 0.003004) 0.58 ± 0.016 mPa·s; (x1 = 0.004999) 0.625 ± 0.016 mPa·s; (x1 = 0.007004) 0.673 ± 0.016 mPa·s; (x1 = 0.008999) 0.717 ± 0.016 mPa·s; (x1 = 0.011) 0.764 ± 0.016 mPa·s; (x1 = 0.01301) 0.807 ± 0.016 mPa·s. Further, the viscosity reads like this: (x1 = 0.015) 0.851 ± 0.016 mPa·s; (x1 = 0.01799) 0.912 ± 0.016 mPa·s.
